The source of these data is PMC4336329 (PLoS ONE, 2015).

The structures appear in SMILES notation. About 14,000 (4.5%) of roughly 310,000 compounds showed an effect of 50% or more. The effect is printed as a negative number. This is one part of the list.
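Also: peak tail current of the secondary pulse compared with the same well before compound.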

This assay deals with human ether-à-go-go-related gene (hERG) potassium channel (human, UniProt Q12809). The assay can be described thus: primary screen, population patch clamp on CHO cells stably expressing hERG.
Chain of human ether-à-go-go-related gene (hERG) potassium channel (Q12809 whole entry, looked up): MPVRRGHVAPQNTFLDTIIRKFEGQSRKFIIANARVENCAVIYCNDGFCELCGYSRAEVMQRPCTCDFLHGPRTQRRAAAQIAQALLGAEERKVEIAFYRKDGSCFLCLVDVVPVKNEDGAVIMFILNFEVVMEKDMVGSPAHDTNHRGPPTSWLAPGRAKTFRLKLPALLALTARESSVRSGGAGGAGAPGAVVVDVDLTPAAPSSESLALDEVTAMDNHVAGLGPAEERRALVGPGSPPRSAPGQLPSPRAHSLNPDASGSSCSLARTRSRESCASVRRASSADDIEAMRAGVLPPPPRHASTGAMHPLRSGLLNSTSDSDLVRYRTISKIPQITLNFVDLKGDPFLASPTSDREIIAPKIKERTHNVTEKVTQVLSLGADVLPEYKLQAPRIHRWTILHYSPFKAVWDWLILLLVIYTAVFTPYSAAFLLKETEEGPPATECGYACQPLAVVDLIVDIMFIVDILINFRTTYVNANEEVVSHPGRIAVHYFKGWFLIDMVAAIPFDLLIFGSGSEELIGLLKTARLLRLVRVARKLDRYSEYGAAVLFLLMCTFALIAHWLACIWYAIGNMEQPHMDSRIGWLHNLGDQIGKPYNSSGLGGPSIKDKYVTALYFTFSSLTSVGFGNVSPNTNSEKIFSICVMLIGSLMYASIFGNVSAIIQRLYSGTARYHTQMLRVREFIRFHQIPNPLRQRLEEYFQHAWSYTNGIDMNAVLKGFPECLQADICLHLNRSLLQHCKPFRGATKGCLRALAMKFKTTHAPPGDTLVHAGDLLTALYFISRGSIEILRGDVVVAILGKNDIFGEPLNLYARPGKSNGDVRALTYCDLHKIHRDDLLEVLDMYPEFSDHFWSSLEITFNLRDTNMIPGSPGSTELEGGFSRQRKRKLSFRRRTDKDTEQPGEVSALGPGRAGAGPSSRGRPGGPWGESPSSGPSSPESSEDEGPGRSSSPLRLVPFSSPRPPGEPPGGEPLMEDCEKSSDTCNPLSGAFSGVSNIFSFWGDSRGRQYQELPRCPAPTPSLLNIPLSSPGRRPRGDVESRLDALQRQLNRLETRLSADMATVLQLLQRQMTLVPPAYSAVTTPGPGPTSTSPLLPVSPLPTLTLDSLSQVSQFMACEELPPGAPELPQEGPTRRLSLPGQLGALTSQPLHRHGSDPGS
Regarding `Cc1nc(NC(C)c2ccccc2)c2c3c(sc2n1)CCC3` (centres unmarked), the “hERG current change (%, negative = inhibition) at 10uM” value was -17.8%.

`O=C(COC(=O)c1cnccn1)Nc1c(Cl)cc(Cl)cc1Cl`: the “hERG current change (%, negative = inhibition) at 10uM” value is listed as 5.3%.

For the compound `COc1ccc(N2CCN(C(=O)Cc3ccc(-n4c(=O)[nH]c5ccccc5c4=O)cc3)CC2)cc1`, the “hERG current change (%, negative = inhibition) at 10uM” value was -5.16%.

Take `NS(=O)(=O)c1ccc(NS(=O)(=O)c2ccc(NC(=O)c3ccc(-c4ccccc4)cc3)cc2)cc1`: the “hERG current change (%, negative = inhibition) at 10uM” value is reported as 5.46%.

With `Cc1ccc(S(=O)(=O)N2CCN(C(=O)Cc3ccsc3)CC2)c(C)c1`, the “hERG current change (%, negative = inhibition) at 10uM” value is on record as -38.5%.

On to `C=CCOc1ccc(-c2nc3c(c(=O)[nH]c(=O)n3CCCC)n2C)cc1Br`, for which the “hERG current change (%, negative = inhibition) at 10uM” value is recorded as -11.5%.

In the case of `CCOc1ccc(CCNC(=O)c2ccc(CS(=O)Cc3ccccc3Cl)o2)cc1` (centres unmarked), the “hERG current change (%, negative = inhibition) at 10uM” value is -19%.

`O=C(NCC(c1ccco1)N1CCc2ccccc21)C(=O)Nc1ccccc1F` (centres unmarked): the “hERG current change (%, negative = inhibition) at 10uM” value is -28.5%.

For `Nc1nonc1-n1nnc(C(=O)N/N=C/c2cccc(F)c2)c1-c1ccc2c(c1)OCO2`, the “hERG current change (%, negative = inhibition) at 10uM” value was found to be 8.77%.

With `O=C(NCc1cccs1)c1cc(S(=O)(=O)N2CCOCC2)c(Cl)cc1Cl`, the “hERG current change (%, negative = inhibition) at 10uM” value is on record as -81.6%.

For `O=c1cc(O)c2sc(Nc3ccc(Cl)c(F)c3)nc2[nH]1`, the “hERG current change (%, negative = inhibition) at 10uM” value came out at 13.5%.

Consider `COc1cccc(CC2(CO)CCCN(CC3=Cc4cc(Cl)ccc4OC3)C2)c1` (centres unmarked), for which the “hERG current change (%, negative = inhibition) at 10uM” value is -7.49%.

For `O=C(NC1CC2CCCC(C1)N2S(=O)(=O)c1ccccc1)c1ccco1` (centres unmarked), the “hERG current change (%, negative = inhibition) at 10uM” value came out at 1.75%.

On to `O=C(COc1cc(F)ccc1[N+](=O)[O-])Nc1cccc(Br)c1`, for which the “hERG current change (%, negative = inhibition) at 10uM” value is on record as 8.55%.

Regarding `CCCNC(=O)Cc1c(C)n(C(=O)c2ccc(Cl)cc2)c2ccc(OC)cc12`, the “hERG current change (%, negative = inhibition) at 10uM” value was 14.6%.

Turning to `CC(=O)N/C(=C\c1ccccc1)C(=O)OC/C=C/c1ccccc1`, the “hERG current change (%, negative = inhibition) at 10uM” value was -1.02%.

Regarding `Nc1nc2nccc(-c3ccc(Cl)cc3)n2n1`, the “hERG current change (%, negative = inhibition) at 10uM” value was -1.69%.

As for `Cn1c(=O)c2c(ncn2CC(=O)N/N=C/C=C/c2ccccc2[N+](=O)[O-])n(C)c1=O`, the “hERG current change (%, negative = inhibition) at 10uM” value came to 2.08%.

With `CN(C)C1(CNCC(O)c2ccccc2)CCCCC1.O=C(O)C(=O)O` (centres unmarked), the “hERG current change (%, negative = inhibition) at 10uM” value stood at 5.66%.

In the case of `CCOC(=O)C(C)Sc1ncc(-c2ccc(Cl)cc2)cn1` (centres unmarked), the “hERG current change (%, negative = inhibition) at 10uM” value is listed as -37.5%.

Take `O=[N+]([O-])c1ccc2c(c1Nc1ccccc1)=NC1(CCCCC1)N=2`: the “hERG current change (%, negative = inhibition) at 10uM” value was found to be 8.2%.

Regarding `CNC[C@H](O)c1cccc(O)c1.Cl`, the “hERG current change (%, negative = inhibition) at 10uM” value turned out to be 13.8%.

As for `CC1(C)C2CC=C(/C=N/n3cnnc3)C1C2` (centres unmarked), the “hERG current change (%, negative = inhibition) at 10uM” value is on record as -15.4%.

As for `N#CC1=C(N)Oc2cc(N)ccc2C1c1ccc(Cl)cc1` (centres unmarked), the “hERG current change (%, negative = inhibition) at 10uM” value was found to be 9.39%.

Consider `CSc1sc(C#N)c2c1/C(=N\O)CCC2`, for which the “hERG current change (%, negative = inhibition) at 10uM” value is 16.2%.

As to `Cc1cc(C)cc(OCC(=O)NC2=NCCS2)c1`, the “hERG current change (%, negative = inhibition) at 10uM” value came out at 9.56%.

In the case of `COc1cc(/C=C/C(=O)c2ccc3c(c2)OCO3)cc(OC)c1OC`, the “hERG current change (%, negative = inhibition) at 10uM” value came to 6.73%.

On to `Cc1ccc(-c2ccnc(-c3ccc(O)cc3)n2)cc1`, for which the “hERG current change (%, negative = inhibition) at 10uM” value stood at 13.4%.

As to `CC(C)CCN1C(=O)c2ccc(C(=O)Nc3ccccc3C(=O)O)cc2C1=O`, the “hERG current change (%, negative = inhibition) at 10uM” value worked out at 39.1%.

Take `CN1C(=O)c2ccccc2N(C)C1c1ccc(F)cc1` (centres unmarked): the “hERG current change (%, negative = inhibition) at 10uM” value is 9.16%.

As for `CCC(C)NC(=O)COC(=O)c1oc2ccccc2c1CSc1ccc(Cl)cc1` (centres unmarked), the “hERG current change (%, negative = inhibition) at 10uM” value is reported as -14.5%.

`COc1ccc(C(=O)/C=C/c2cc(OC)c(O)c(OC)c2)c(F)c1`: the “hERG current change (%, negative = inhibition) at 10uM” value is -52.3%.

In the case of `C=CCOC(=O)C1=C[C@@H](c2ccccc2)[C@H](CCCO)[C@@H](OCC)O1`, the “hERG current change (%, negative = inhibition) at 10uM” value is on record as -9.65%.

On to `Cc1ccc(-c2noc(CN(C)C(=O)Nc3ccc(F)cc3)n2)cc1`, for which the “hERG current change (%, negative = inhibition) at 10uM” value stood at 17.2%.

Turning to `CCN(CC)CCOCCOC(=O)C(CC)(CC)c1ccccc1`, the “hERG current change (%, negative = inhibition) at 10uM” value is -9.35%.

In the case of `CCCCc1nnc(NC(=O)C(C)Sc2nc(O)c(Cc3ccccc3)c(=O)[nH]2)s1` (centres unmarked), the “hERG current change (%, negative = inhibition) at 10uM” value is recorded as 8.89%.

In the case of `COc1cc2cnncc2cc1OC`, the “hERG current change (%, negative = inhibition) at 10uM” value stood at 1.01%.

In the case of `COC(=O)c1ccc(-n2c(CCC(=O)O)ccc2-c2ccc(C)cc2)cc1`, the “hERG current change (%, negative = inhibition) at 10uM” value was found to be 2.4%.

Consider `Cc1ccccc1CSc1nnc(NC(=O)Cc2cccs2)s1`, for which the “hERG current change (%, negative = inhibition) at 10uM” value is reported as -7.3%.

Regarding `CCCSc1nnc(Nc2ccccc2C)s1`, the “hERG current change (%, negative = inhibition) at 10uM” value is on record as -15.9%.

For `N#Cc1ccccc1OCCN1C(=O)c2ccccc2C1=O`, the “hERG current change (%, negative = inhibition) at 10uM” value is recorded as 2.76%.

For the compound `Cc1cc2c3c(ccc(C)c3n1)N=CN2c1ccccc1`, the “hERG current change (%, negative = inhibition) at 10uM” value is given as -38.8%.

As for `COc1ccc(Cl)cc1C(=O)Nc1ccc2c(c1)OCO2`, the “hERG current change (%, negative = inhibition) at 10uM” value is -17%.

As to `CCOC(=O)Cn1c(=NC(=O)c2cc(-c3cccs3)nc3ccccc23)sc2cc(S(N)(=O)=O)ccc21`, the “hERG current change (%, negative = inhibition) at 10uM” value is given as 23.4%.
